Assay results published in the supplement of paper PMC12889115.
The other results are listed elsewhere or left out. Rule as the data show it: active = 25% or less and inactive = the rest. Repeats are few or missing, and single values can be far off.

system: Salmonella enterica serovar Typhimurium SL1344; test: intramacrophage bacterial GFP load (SAFIRE), percent of DMSO control (% of DMSO); higher = more intracellular bacteria (less inhibition); conditions: 25 µM; system: infected RAW 264.7 macrophages
Protocol: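 Secondary screen of the 553 primary hits at 25 µM. (i) S. Typhimurium SL1344 grown in Mueller-Hinton broth with 0.5 µg/mL polymyxin B, OD600 read after 18 h. (ii) SAFIRE assay: RAW 264.7 macrophages infected with S. Typhimurium sifB::gfp (MOI 30); compound added 2 h post-infection; cells fixed at 18 h; GFP-positive pixel fraction per macrophage imaged by confocal microscopy and expressed as % of DMSO control.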
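Also: compounds tested were the hits of an earlier 50 µM broth growth screen of a drug-like diversity library run with polymyxin B.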

Compound | intramacrophage bacterial GFP load
CC(Cc1cccnc1)NC(=O)c1cc(COc2cccc3cnccc23)on1 (configuration not stated) | inactive: 156
CCOC(=O)C1(CCCc2ccccc2)CCN(C(=O)Cc2cccnc2)CC1 | inactive: 25.1
COCCN1C(=O)CC(CC(=O)N(C)CCC23CC4CC(CC(C4)C2)C3)(c2ccccc2OC)C1=O (configuration not stated) | inactive: 35.3
CCCCN(C)C(=O)c1nc2ccccn2c1CNCc1c(OC)ccc2ccccc12 | active: 5.78
COc1cc(CN2CCCC(CO)(Cc3cccc(Cl)c3)C2)cc(Cl)c1OC (configuration not stated) | active: 2.83
O=C(/C=C/c1cccc(F)c1)N(Cc1ccncc1)Cc1cccc(OCCc2ccc(F)cc2)c1 | inactive: 45.7
COc1ccc2c(c1)SC(c1ccc(OC)c(C)c1)CCN2Cc1cccc2nccnc12 (configuration not stated) | inactive: 128
Cc1nonc1CN(C)C(=O)C1CCN(c2nc(-c3ccccc3)nc3c2CCC3)CC1 | inactive: 141
Cc1cc(-c2cc(F)cc3c2OC(CNC(=O)c2ccco2)C3)ccc1F (configuration not stated) | inactive: 111
O=C(CN1CCOC1=O)N1CCCC(CCc2cccc(C(F)(F)F)c2)C1 (configuration not stated) | inactive: 62.9
O=C(c1cc(CCc2ccccc2)no1)N1CCCC(c2ccccc2)C1 (configuration not stated) | inactive: 168
COC(=O)c1ccc(CN2CCOc3ccc(C(C)(O)COc4ccccc4)cc3C2)cc1 (configuration not stated) | inactive: 93.5
O=C(c1ccc(Cn2cnnn2)cc1)N1CCCC(CCc2ccccc2)C1 (configuration not stated) | inactive: 102
Cc1cccc(C(=O)NCc2nc(-c3ccccc3NC(=O)CC3CCCC3)oc2C)n1 | inactive: 147
O=C(CCN1Cc2ccccc2OC(c2ccccc2)C1)N1CCC(Oc2cccnc2)CC1 (configuration not stated) | active: 20.7
COc1cccc(-c2nc3ccc(C(=O)NCCc4scnc4C)cc3o2)c1 | inactive: 160

Compound | intramacrophage bacterial GFP load
COc1ccc(OC)c(-c2cc(Cl)c3c(c2)CC(CNC(=O)c2cc(C)oc2C)O3)c1 (configuration not stated) | inactive: 173
CCOc1ccc2nc(N3CCC(NC(Cn4cccn4)c4ccccc4)CC3)nc(C)c2c1 (configuration not stated) | active: 22.8
O=C(CCC1(Cc2ccc3ccccc3c2)CCC(=O)N1)NCc1cccc(Cl)c1 (configuration not stated) | inactive: 144
O=C(c1coc(Cn2cnc3ccccc32)n1)N1CCC(C2CCCCC2)C1 (configuration not stated) | inactive: 40.3
CCS(=O)(=O)c1ncc(CN(C)Cc2ccc(C)cc2)n1CCc1ccccc1 | inactive: 53.7
Cc1ccn(CC(=O)N2CCCC(CCc3ccccc3C)C2)n1 (configuration not stated) | inactive: 129
COc1cc(CN2CCOc3ccc(C(O)CCc4ccccc4)cc3C2)cc(OC)c1 (configuration not stated) | inactive: 32.4
CCOC(=O)C1(Cc2ccccc2F)CCCN(C(=O)c2c(C)nc3sccn23)C1 (configuration not stated) | inactive: 85.8
COc1cccc(-c2cnc(-c3ccncc3)nc2C2CCN(Cc3cn(C)c4ccccc34)CC2)c1 | active: 0.65
Cc1cccc(CNCC2(O)CCCN(CC3CC3)C2=O)n1 (configuration not stated) | inactive: 99
CN(Cc1ccccc1Cl)C(=O)c1coc(COc2cccc(F)c2)n1 | inactive: 27.7
O=C1N(Cc2cccc(Cl)c2)C[C@@H]2C[C@@H](c3cccc4cnccc34)N3CCC[C@@]123 | inactive: 45.9
Cc1csc(SCC(=O)N2CCC3(CC2)CC3C(=O)NCCc2nc3ccccc3n2C)n1 (configuration not stated) | inactive: 112
Cc1nn(C)cc1CN1CCOc2ccc(C3=Cc4ccccc4C3)cc2C1 | active: 6.5
COc1ccccc1OC1CCN(c2nncc(-c3ccccc3C)n2)CC1 | inactive: 103
COCCN1C(=O)CC(CC(=O)N2CCCC(COc3ccccc3C)C2)(c2ccccc2F)C1=O (configuration not stated) | inactive: 149
